The target of this test is T1, purified hemagglutinin (HA)-tagged PURB (human (cDNA amplified from H1299 cells), UniProt Q96QR8 1-312).
T1 sequence (looked up): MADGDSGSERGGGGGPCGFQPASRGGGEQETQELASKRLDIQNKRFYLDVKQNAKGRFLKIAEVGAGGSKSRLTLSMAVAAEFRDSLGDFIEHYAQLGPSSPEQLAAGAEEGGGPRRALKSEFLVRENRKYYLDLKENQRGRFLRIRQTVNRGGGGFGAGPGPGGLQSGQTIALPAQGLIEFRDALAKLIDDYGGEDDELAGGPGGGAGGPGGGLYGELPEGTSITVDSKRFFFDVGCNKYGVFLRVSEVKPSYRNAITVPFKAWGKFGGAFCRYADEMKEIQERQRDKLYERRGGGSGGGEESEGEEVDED
The test can be described thus: pull-down.

The values that follow come from publication PMC13010994 (Nature structural & molecular biology, 2025).

B1: GST–p53 ([…]) (domain or fragment)
chain: not shown
In the case of B1, the binding result is recorded as “binds”.
